Results taken from PubChem BioAssay (NCI).
Several values for one entry are separate records, joined by “and”; a condition that tells them apart may be missing. Equal values may be shown once.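 Growth conditions: 96-well plates. Treatment: test compound, 48 hours, 5 concentrations. Analysis: linear interpolation between bracketing concentrations; unreached endpoints set to highest concentration. GI50: concentration for 50% inhibition of growth. TGI denotes the concentration required for complete inhibition of growth.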

Each compound was assayed on NCI-H322M lung (assay: NCI anticancer screen, dose series, 48 h).
For `CCN(CC)CCC(CNc1ccnc2cc(Cl)ccc12)c1ccc(OC)cc1` (stereo not given), the GI50 was 2.82 µM and 4.84 µM and the TGI was 15.7 µM and 25.6 µM.
For `COc1cc2cc3c4c(cc(OC)c(OC)c4c2cc1OC)CCN3C(=O)OCCN1CCNCC1`, the TGI was 32.1 µM.
With `O=C(O)C1C2C=CC(O2)C1C(=O)NCc1ccccn1` (stereo not given) the TGI was over 100 µM.
Compound `COc1cccc2c1OC(c1ccc(Cl)cc1)C([N+](=O)[O-])=C2` (stereo not given) has a TGI of 14 µM.
In the case of `O=C(CNc1ccc(Cl)cc1)Nc1ccc(-c2nc3ccccc3s2)cc1`, the GI50 is reported as 5.37 µM and the TGI is reported as 11.7 µM.
For `CCCCS(=O)CCC(N)P(=O)(O)O` (stereo not given), the TGI was over 100 µM.
With `C=C1C(=O)C[C@H]2C(=C)C(=O)O[C@@H]2C2C1CC[C@@]2(C)O` (stereo not given in full) the TGI was over 100 µM.
Work on `OCCCCCCCCCCCOc1ccc(C2OCC3(CO2)COC(c2ccc(OCCCCCCCCCCCO)cc2)OC3)cc1` (stereo not given) yielded a TGI of over 50 µM.
Compound `Cc1nn(-c2ccccc2)c2nc(N3CCOCC3)nnc12` has a TGI of over 100 µM.
Compound `CN=c1nc2sc3c(c2c(NC(=S)NC)s1)CCCC3` has a TGI of over 100 µM.
In the case of `Nc1ccc(-c2nc3cc(F)ccc3s2)cc1Cl`, the TGI is reported as over 44.3 µM.
`CN(C(=O)C1=CCC2(CC1)OCCO2)c1ccccc1OS(=O)(=O)C(F)(F)F` gave a TGI of over 100 µM.
For `Cc1cc(I)cc(CN(C)CCCN2CCCCCCC2)c1O`, the GI50 was 16.3 µM and the TGI was 31.2 µM.
For `COc1cc(C(=O)n2c3ccc(Br)cc3c3nc4ccccc4nc32)cc(OC)c1OC`, the TGI was over 100 µM.
With `CCOC(=O)C1=C(C)N(Cc2ccc(Cl)cc2Cl)C2(O)C=CC(=O)C3C(=O)N(c4ccccc4)C(=O)C132` (stereo not given) the TGI was 15.3 µM.
For `COc1cc(C2CC(c3cccc(Br)c3)=NN2C(C)=O)cc(OC)c1OC` (stereo not given), the GI50 was 0.563 µM and the TGI was over 100 µM.
In the case of `CCCC[C@@H]1CCN2C[C@@H](O)[C@@H](O)[C@@H]2[C@H]1O`, the TGI is reported as over 100 µM.
Compound `CC1(C)CC(=O)c2[nH]c3ccccc3c2CC(=O)NCCc2cn1cn2` has a TGI of over 100 µM.
Work on `CCCCCCNC(=O)c1cc(NCc2cc(O)ccc2O)ccc1O` yielded a GI50 of 25.6 µM and a TGI of over 100 µM.
With `O=C(O)c1ccc(Nc2c3ccccc3nc3ccccc23)cc1` the TGI was over 100 µM.
`CC(=O)c1cccc(NC(=O)C(=O)NNc2n[nH]c(=S)n2N)c1` gave a TGI of 26.6 µM.
Work on `OCC1OC(c2cccc3cc(O)c(O)cc23)CC1O` (stereo not given) yielded a TGI of over 100 µM.
`O=c1c2sc(=S)n(-c3ccc(F)cc3)c2ncn1Cc1ccc(F)cc1F` showed a GI50 of over 100 µM and a TGI of over 100 µM.
In the case of `Cc1ccc(S(=O)(=O)N(CC(=O)O)c2ccccc2)cc1`, the TGI is reported as over 100 µM.
`C[N+](CCCl)(CCCl)Cc1cccc2cccc([N+](=O)[O-])c12` gave a TGI of over 100 µM.
`CN(C)/C=N/c1nc2c(ncn2C2OC(CO)C(O)C2O)c(=O)[nH]1` (stereo not given) showed a TGI of over 100 µM.
For `CN(C)c1ccc(C(C=C2c3ccccc3Sc3ccccc32)=C(C#N)C#N)cc1`, the TGI was over 100 µM.
`COC(=O)c1ccc(C(=O)NC(Cc2ccc(Oc3cc(CC(NC(=O)c4ccccc4C(=O)OC)C(=O)OC)ccc3OC)cc2)C(=O)OC)cc1` (stereo not given) gave a TGI of over 100 µM.
`COC(=O)C1=C(C)NC2=C(C(=O)c3ccccc32)C1c1cn(-c2ccccc2)nc1-c1ccccc1` (stereo not given) gave a TGI of over 100 µM.
`CC(C)C(=O)[C@@]1(C)SC[C@H]2CCN=C21` was tested, and the TGI was over 100 µM.
`[N-]=[N+]=NC12CC3C4CC5CC3C(C1)C(C5)C4C2` gave a TGI of over 100 µM.
`CC1(c2cccs2)CC(c2cccs2)=C(C#N)C(=C(C#N)C#N)N1` (stereo not given) showed a TGI of 30.4 µM.
`O=C(Nc1nc2ccc(C(F)(F)F)cc2s1)c1cc(Cl)ccc1O` showed a GI50 of 0.661 µM and a TGI of over 100 µM.
For `CC(C)(C)CC(C)(C)c1cc2c(O)c(c1)Cc1cc(C(C)(C)CC(C)(C)C)cc(c1O)Cc1cc(C(C)(C)CC(C)(C)C)cc(c1O)Cc1cc(C(C)(C)CC(C)(C)C)cc(c1O)C2`, the TGI was over 100 µM.
`OC1[C@@H]2[C@@H](O)[C@H](O)[C@@H](O)N2C[C@@H]1O` (stereo not given in full) showed a TGI of over 100 µM.
Compound `FC(F)(F)c1ccc(N=C/C=C(/Nc2ccc(C(F)(F)F)cc2)c2ccc(Cl)cc2)cc1` has a TGI of 33.4 µM.
With `CCN(CC)CCC(=O)/C=C/c1ccccc1` the TGI was 54.3 µM.
`COCC1OC(Sc2ccccc2)C(O)C(OC)C1OC` (stereo not given) showed a TGI of over 100 µM.
`C=C1C(=O)O[C@@H]2C[C@@H]1CC/C(C)=C/CC/C(C)=C/CC[C@@]2(C)O` showed a GI50 of 12.7 µM and a TGI of 32.5 µM.
Compound `O=C(NCC(=O)N1CCCC1C(=O)OC(=O)C1CCCN1C(=O)CNC(=O)OCc1ccccc1)OCc1ccccc1` (stereo not given) has a TGI of over 100 µM.
`CC(C)=CCNc1ncnc2c1ncn2C1OC(CO)C(O)C1O` (stereo not given) was tested, and the GI50 was 3.27 µM and the TGI was over 1000 µM.
For `COC(=O)c1cc2c(s1)C(=O)c1ccccc1-2`, the TGI was over 100 µM.
In the case of `CC(C)c1ccccc1NC(=O)CCc1n[nH]c(=S)o1`, the TGI is reported as over 100 µM.
`C=CCCCCC/C=C\[C@H](O)C#CC#C/C=C/CO` was tested, and the GI50 was 43.2 µM and the TGI was over 100 µM.
Work on `O=C1C2CC=CCC2C(=O)N1n1c(Cc2ccc(Cl)cc2)n[nH]c1=O` (stereo not given) yielded a TGI of over 100 µM.
For `N=C1/C(=C/c2ccc(F)cc2)C(=O)N=C2SC=NN12`, the TGI was over 100 µM.
For `C=C1CC[C@@H]2[C@](C)(COC(C)=O)[C@H](OC(C)=O)CC[C@@]2(C)[C@@H]1CC(Sc1ccccc1)C1=CCOC1=O` (stereo not given in full), the GI50 was 2.93 µM and the TGI was 10.4 µM.
With `COc1ccc(/C=C(/C(=O)N2CCN(c3ccccc3)CC2)c2cc(OC)c(OC)c(OC)c2)cc1O` the GI50 was 0.765 µM and the TGI was over 100 µM.
In the case of `CC1(C)COC(c2cccnc2/C=N/O)=N1`, the TGI is reported as over 100 µM.
`CCN1CCN(C(c2ccc(C(F)(F)F)cc2)c2ccc3cccnc3c2O)CC1` (stereo not given) showed a GI50 of 0.602 µM and a TGI of 22.9 µM.
`CCCCC(C(=O)C(=O)NC1C2CC3CC(C2)CC1C3)C(=O)C(C)C` (stereo not given) showed a TGI of over 100 µM.
For `Cc1ccc(Cc2c(=O)[nH]nc3ccccc23)cc1`, the TGI was over 100 µM.
`COc1cc(C#CC(=O)OC/C=C/c2ccc3c(c2)OCO3)cc(OC)c1OC` gave a TGI of over 100 µM.
Work on `COc1ccc(N2C(=O)C(=O)N(c3ccccc3[N+](=O)[O-])C2=S)cc1` yielded a TGI of over 100 µM.
For `CC(C)(Cl)C(Br)CCC(C)(Cl)C(Br)CBr` (stereo not given), the TGI was over 100 µM.
With `Cn1c2c(c3ccccc31)C1CCCCCCC1C1C(=O)OC(=O)C21` (stereo not given) the TGI was over 100 µM.
`O=c1[nH]c2c(nc1NC13CC4CC(CC(C4)C1)C3)c(=O)oc1ccccc12` gave a TGI of over 100 µM.
For `CCOc1cc2c(OCc3ccccc3)cc3c4cc(OC)c(OC)cc4c[n+](C)c3c2cc1OC`, the TGI was 13.5 µM.
Compound `Nc1ccc(Oc2ccc(C34CC5CC6C3CC3CC4C(C5)C6(c4ccc(Oc5ccc(N)cc5)cc4)C3)cc2)cc1` has a TGI of over 85.8 µM.
For `CN1CCN(CCOc2ccc(-c3cnc4c(-c5ccccc5F)cnn4c3)cc2)CC1`, the GI50 was 1.76 µM and the TGI was 3.28 µM.
Work on `NC1CC(=O)c2c(Br)csc21` (stereo not given) yielded a TGI of over 100 µM.
`Cc1cc(C)n2nc3nc(N)c(C#N)c(-c4ccccc4)c3c2n1` showed a TGI of over 100 µM.
`COc1cnc2c(c1)C(=O)c1c-2n(CCCNC(C)C)c(=O)c2cc(Cl)ccc12` showed a GI50 of 1.06 µM and a TGI of 2.6 µM.
Compound `CCOC(=O)c1c(-c2ccc(OC)cc2)c(C#N)c(=S)n(C2OC(COC(C)=O)C(OC(C)=O)C(OC(C)=O)C2OC(C)=O)c1-c1ccccc1` (stereo not given) has a TGI of over 100 µM.
`C=C(CCC/C(C)=C/C=C/[C@]1(C)CCCc2ccoc21)CC(=O)O` was tested, and the TGI was over 100 µM.
For `[Cl][Hg][c]1cc(Br)cc(Br)c1`, the GI50 was 3.04 µM and the TGI was 11.5 µM.
In the case of `CCOc1ccccc1C=C1c2ccccc2C(=O)c2ccccc21`, the TGI is reported as over 100 µM.
`Cc1cc(N)c(C)c2c1[nH]c1ccc(O)cc12` gave a TGI of over 100 µM.
`CCCN=C(N)NC#N` gave a TGI of over 100 µM.
In the case of `O=c1[nH]c(=O)n(C2OC(CO)C(O)C2O)cc1NN=NCc1ccccc1` (stereo not given), the TGI is reported as over 100 µM.
`CC(C)(C)NC(NC(C)(C)C)=C(/C=C(/Cl)[N+](=O)[O-])[N+](=O)[O-]` showed a TGI of over 100 µM.
`C=C1C(=O)OC2CCN3CC=C(COC(=O)C(C)(O)C4(CO4)C1C)C23` (stereo not given) gave a TGI of over 100 µM.
For `COc1cccc(/C=C/c2cc(OC)c(OC)c(OC)c2)c1`, the TGI was over 100 µM.
Work on `O=C(/C=C/c1ccccc1O)c1ccccc1O` yielded a TGI of over 100 µM.
Compound `C=C(c1nc2ccc(Cl)cc2[nH]c1=O)C(O)c1ccc(C(O)C(=O)c2nc3ccc(Cl)cc3[nH]c2=O)cc1` (stereo not given) has a TGI of over 100 µM.
`CC(CCC=O)CCOCc1ccccc1` (stereo not given) gave a TGI of over 100 µM.
`N#Cc1c(NN)n(C2OC(CO)C(O)C2O)c2ncnc(N)c12` (stereo not given) showed a GI50 of 0.371 µM and a TGI of over 22.6 µM.
`CC(C)CC1C(=O)NCCC(NC(=O)C(Cc2ccc(OC(C)(C)C)cc2)NC(=O)OC(C)(C)C)C(=O)NC(Cc2ccccc2)C(=O)NC(Cc2ccccc2)NC1=O` (stereo not given) gave a TGI of 26.8 µM.
`CCN(CC)c1ccc2c(c1)OC(N)=C(C#N)C2c1cc(OC)c2c(c1)OCO2` (stereo not given) was tested, and the GI50 was 0.546 µM and the TGI was over 69.9 µM.
`CC1=CC(C)C/C=C/C2C3OC3(C)C(C)C3C(Cc4c[nH]c5ccccc45)NC(=O)C23C(=O)C=CC(=O)C1O` (stereo not given) was tested, and the TGI was 29 µM.
`N#Cc1c(-c2ccc(Cl)cc2)c2c([nH]c1=O)-c1ccccc1SC2` gave a TGI of over 100 µM.
`Oc1c(C2=NNC(c3ccc(Cl)cc3Cl)C2)ccc2ccccc12` (stereo not given) showed a TGI of over 100 µM.
In the case of `O=c1cnn(C2OC(C(O)CO)C(O)C2O)c(=O)[nH]1` (stereo not given), the TGI is reported as over 100 µM.
Work on `CC(C)c1ccc2c(c1)CC[C@@H]1[C@@](C)(C(=O)O)CCC[C@]21C` yielded a GI50 of 10.4 µM and a TGI of 23.1 µM.
`O=C1NC(NNc2ccccc2)=N/C1=C\c1ccccc1O` gave a TGI of over 100 µM.
Compound `NNC(=S)N/N=C(\CC1OC(=O)c2ccccc21)c1ccccc1O` (stereo not given) has a TGI of over 100 µM.
